Hit rate of the full screen: of about 150,000 compounds, about 540 (0.36%) showed an effect of 50% or more. This is one part of the list.
Tested on: Plasmodium falciparum
Experiment: Primary screen in NF54 nanoGlo assay, in single point, at 2uM, 72h; a lower Z score goes with more inhibition
Type: functional, Erythrocyte
Settings: timepoint 72 hour

| Compound | % Inhibition | Z score |
| --- | --- | --- |
| Cc1cc(C)n(CC2(c3nc4c([nH]3)CCCNC4=O)CC2)n1 | 8% | -1.06 |
| Cc1csc(CNC(=O)C2(C)CC2F)n1 (stereo unspecified) | -8% | 1.2 |
| O=C(N1CCC(Oc2ncccc2Br)CC1)C1(c2ccccc2)CCOCC1 | -9% | 1.65 |
| CN1CCN(S(=O)(=O)N2CC[C@H](C3CCCCC3)C2)CC1 | -22% | 2.32 |
| CCOC(=O)c1nnsc1NC(=O)Nc1ccccc1OC | 7% | -0.85 |
| COC(=O)c1cc(NS(C)(=O)=O)ccc1O | -3% | 0.39 |
| O=C(NC1CCCC1)[C@@H](c1ccc(Cl)cc1)N(Cc1ccccc1)c1ccccc1 | -5% | 0.73 |
| O=C(Cc1cccc(OC(F)(F)F)c1)NCc1cc2n(n1)CCCO2 | -15% | 2.38 |
| NC[C@@](O)(c1cccc(C(F)(F)F)c1)C(F)(F)F | -1% | 0.18 |
| O=C(NCc1cccnc1N1CCC[C@H](O)C1)c1ccccn1 | -13% | 1.56 |
| COCc1nc2n(n1)CCCC2NC1CCCN(C(C)C)C1=O (stereo unspecified) | -4% | 0.58 |
| Cc1ccc(CN2CCN(C/C=C/c3ccco3)C[C@@H]2CCO)o1 | 6% | -0.83 |
| Cc1nocc1NC(=O)N[C@@H]1CN(C(=O)OC(C)(C)C)C[C@@H]1O | -15% | 1.61 |
| O=C(NCc1ccc2c(c1)CCCC2)NCc1nnn[nH]1 | 12% | -1.57 |
| C[C@@H](c1ccc(-c2nc(C3CC3)n[nH]2)cc1)N1CCCCC1 | -4% | 0.57 |
| Cc1ccc(-c2noc3c(N(c4ccc(C)c(Cl)c4)c4nc(C)nc5c(-c6ccc(C)cc6)noc45)nc(C)nc23)cc1 | -12% | 1.88 |
| Cc1cc(NC(=O)N[C@H]2CCCn3ncnc32)n(C)n1 | -8% | 1.02 |
| Cc1ccnc([C@@H](NC(=O)Nc2ccc3c(c2)nnn3C)C2CC2)c1 | -4% | 0.89 |
| CN1C(=O)C[C@H](NC(=O)N(C)C2CCCC2)C1=O | -2% | 0.27 |
| CN(C)C[C@H]1CN(CCOCC(F)(F)F)CCO1 | -12% | 1.39 |
| CN1CCN2C[C@@H](NC(=O)c3ccc(CCC(C)(C)O)cc3)C[C@H]2C1 | -1% | 0.23 |

| Compound | % Inhibition | Z score |
| --- | --- | --- |
| N#Cc1ccc(CN2CCC(N3CCN(c4cc(C(F)(F)F)ccn4)CC3)CC2)s1 | 1% | -0.09 |
| Cc1ccc2cc(-c3noc(CCC(=O)Nc4ccccc4C(C)C)n3)c(O)nc2c1 | -2% | 0.36 |
| CNc1nc2c(s1)[C@@H](c1cccc(OC)c1OCc1ccc(F)cc1)CC(O)=N2 | 6% | -0.8 |
| CC(C)(C)c1ncc(CNc2ccc3oc(C(N)=O)nc3c2)cn1 | 12% | -1.36 |
| COc1ccc(NC(=O)c2cc(=O)[nH]c3ccccc23)cc1S(=O)(=O)N1CCCCC1 | -8% | 1.26 |
| Cc1ccccc1-n1ncc2c1CC(C)(C)C[C@@H]2NC(=O)c1nonc1C | 5% | -0.62 |
| CON(C)C(=O)Cc1c(C)nn(C)c1C | -2% | 0.25 |
| CC(C)N1CCC(CNC(=O)C2CCCCC2)CC1 | -12% | 1.81 |
| CCN1CCN(C2=NCCN2S(=O)(=O)c2cc(C)c(C)cc2C)CC1 | -18% | 2.07 |
| CCc1nc2c(c(N(C)Cc3cc(C4CC4)[nH]n3)n1)CCNCC2 | -9% | 1.62 |
| CCOC(=O)CN1CCCN(c2nc3ccccc3n2C)CC1 | 3% | -0.36 |
| Cc1c(Br)c(C(=O)N[C@@H](C)Cc2ccco2)nn1C | -3% | 0.62 |
| CC(C)c1csc(CCNC(=O)Nc2cc(-c3cccnc3)nn2C)n1 | -2% | 0.26 |
| O=C(Cn1c(=O)cnc2ccccc21)N1CC[C@H](c2ccccc2)[C@H](CO)C1 | -8% | 1.33 |
| CC(C)CNC(=O)c1coc(CN2CCN(Cc3ccccc3F)CC2)n1 | -1% | 0.12 |
| CC(=O)N1CCC[C@H]1c1nc(CCOc2ccc(F)cc2)no1 | -4% | 0.52 |
| Cc1cc2c(cc1C)N(CC(=O)Nc1cccc(F)c1)C(=O)[C@H]1CCCC1=N2 | 0% | 0.05 |
| O=C(c1ccc(F)cc1)N1CC(Oc2ccccc2-c2nc(-c3cnccn3)no2)C1 | -17% | 3.04 |
| N#CC1(C(=O)N2CC(O)C2)CCCCC1 | 0% | -0.04 |
| CC(=O)N1CCc2c(NC(=O)[C@@]3(C)CCNC(=O)C3)cccc21 | -9% | 1.1 |
| C[C@H]1CCN(C(=O)C2(C)COC2)CC12CCC2 | -10% | 1.93 |

| Compound | % Inhibition | Z score |
| --- | --- | --- |
| CN(c1ccccc1)S(=O)(=O)NC(=O)c1coc(C2CCCC2)n1 | -4% | 0.35 |
| c1ccc(-c2csc(N3CCC(c4ccccc4)CC3)n2)cc1 | -17% | 1.86 |
| Cc1cnc(NCCn2cnc(C)c2C)nc1N(C)C | -1% | 0.15 |
| CN1CC[C@H](NC(=O)N(Cc2ccncc2)C2CCCCC2)C1=O | -17% | 1.62 |
| C#CCN(Cc1c[nH]nc1-c1cccnc1)CC1CC1 | -9% | 0.91 |
| Cc1cc(C)n(Cc2ccc(C(=O)NCc3ccc(C)o3)o2)n1 | -15% | 2.12 |
| Cc1nnc(N2CCN(CC(=O)N3CCCC3)CC2)c(C#N)c1C | -1% | 0.16 |
| O=C(c1cc(NCC[C@@H]2C[C@@H]3C=C[C@H]2C3)ccn1)N1CCOCC1 | -5% | 0.62 |
| Cc1ccc(C)n1CC(=O)N1CCC(c2nc3ccccc3o2)CC1 | -18% | 2.27 |
| Cc1ccccc1C(=O)N[C@@H]1CCCC[C@H]1NC(=O)C1CCN(S(=O)(=O)C[C@]23CCC(CC2=O)C3(C)C)CC1 | 0% | -0.02 |
| CC1CC1C(=O)NS(=O)(=O)c1ccc2c(c1)OCCCO2 (stereo unspecified) | -1% | 0.2 |
| CCCCN(Cc1c[nH]cn1)C1CCCCCC1 | 12% | -1.63 |
| O=C(Nc1ccccc1)N[C@H](c1ccccc1)C1(CO)CCOCC1 | 12% | -1.39 |
| CC(C)c1nc(CNC(=O)c2ccc(OC[C@@]3(C)CCCNC3)nc2)no1 | 5% | -0.62 |
| Cc1nsc(NC(=O)C2CC2c2ccc3c(c2)OCCO3)c1C#N (stereo unspecified) | -21% | 2.52 |
| COc1ccc(/C=C(\C(=O)N2CCCCCC2)n2ccccc2=O)cc1 | 28% | -3.12 |
| Cn1c(=O)n(CC(=O)N2CCC[C@H]2c2cccc(F)c2)c2ccccc21 | -12% | 1.57 |
| CCC(=O)N1CCCC(C(=O)NC(c2ccccc2)C(C)C(=O)OC)C1 (stereo unspecified) | 7% | -0.93 |
| Clc1ccc2c(c1)CCCN2Cc1nc(C2CC2)no1 | -15% | 2.4 |
| O=C(Nc1ccccc1F)N1CCC(n2cnc3c(Cl)cccc3c2=O)CC1 | -7% | 0.75 |
| Cc1cc(C(=O)N2CC(C)OC(C)C2)on1 (stereo unspecified) | 12% | -2.2 |

| Compound | % Inhibition | Z score |
| --- | --- | --- |
| COc1ccc(OC)c(CNC(=O)c2cc3n(n2)CCCN(Cc2ccc(Cl)cc2)C3=O)c1 | -12% | 2.28 |
| C[C@H](Oc1cccc(Cl)c1)c1nnc(NCc2cc3n(n2)CCCC3)o1 | -6% | 1.19 |
| Cc1cc(Cl)ccc1-n1nc(CC(C)C)nc1[C@H]1CCCN(C(N)=O)C1 | -7% | 1.36 |
| COc1ccccc1OCC(=O)Nc1ccc2c(c1)NC(=O)[C@H](C)O2 | -2% | 0.42 |
| COc1ccc(N2CCN(C(=O)c3cncnc3C3CC3)CC2)nc1 | -3% | 0.47 |
| COc1ccc(OC2CCN(C3CCCC3)CC2)c(C(=O)N(C)Cc2ccc(F)cc2)c1 | -13% | 1.66 |
| O=C(NCC1(c2ccccc2)CC1)c1cccc(S(=O)(=O)N2CCOCC2)c1 | -15% | 1.97 |
| O=C(N[C@@H]1c2ccccc2C2(CCNCC2)[C@H]1O)c1ccc2ccccc2n1 | -15% | 1.44 |
| O=C(c1cc2ccccc2[nH]1)N1CC2(CCC2(F)F)C1 | 3% | -0.47 |
| Cc1c(C(=O)NCc2ccc(F)cc2)cnn1-c1nccc(-c2ccco2)n1 | -4% | 0.47 |
| Cn1cnc2c1CCN(Cc1ccc(Cl)s1)C2 | -6% | 1.01 |
| O=S(=O)(CCC1CC1)Nc1n[nH]c2nc(C(F)(F)F)ccc12 | 2% | -0.25 |
| O=C(c1cnn2c1CCCC2)N1[C@@H]2CC[C@H]1C[C@@H](O)C2 | -23% | 2.16 |
| Cc1noc(C)c1CN1CC[C@H](CO)[C@H](NC(=O)c2ccccc2)C1 | -6% | 0.8 |
| O=C1N[C@H]2C[C@@H](C(=O)NC[C@H]3O[C@H](CCOc4ccccc41)CC[C@@H]3O)N(CC1CCCCC1)C2 | -13% | 1.89 |
| Cc1nc(-c2ccccc2)c(C(=O)n2ccnc2)s1 | -9% | 1.14 |
| CCN(CC(=O)N1CCCN(c2ccc(-c3ccccc3)nn2)CC1)C(=O)c1ccccc1F | -5% | 0.7 |
| Cc1ccc(-c2csc(-c3cccn3CC(=O)NC[C@H]3CCCO3)n2)cc1 | -18% | 3.33 |
| O=C(c1cc(C2CC2)[nH]c(=O)c1)N1CC2C3CCC(O3)C2C1 (stereo unspecified) | 3% | -0.5 |
| COc1ccccc1-c1cc(C(=O)Nc2ccc(F)cc2)nc2c(-c3ccccc3)c(C)nn12 | 5% | -0.52 |

Reference: ChEMBL document CHEMBL4888484, “Replenishing the malaria drug discovery pipeline: Screening and hit evaluation of the MMV Hit Generation Library 1 (HGL1) against asexual blood stage Plasmodium falciparum ,using a nano luciferase reporter read-out” (2022)
